# Some compounds were tested as several samples or in several runs, with calls that do not always agree.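 Cells were grown in 96-well plates and exposed to the test compound at a single concentration for 48 hours; results are reported as percent growth, with values below 10 considered active.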 Certain results were filed several times, with different values. This list holds those alone. An entry can have further records. This drug was run again and again over the years, at its own concentration, as given; one value stands for one run. Marks such as (2×) stand for listed records that agree.
# Legend:
# Assay in all cases: NCI-60 one-dose screen, 48 h (100 = growth as untreated, 0 = no growth, -100 = all killed)
# Conditions in all cases: 2.5 mM
# HS 578T breast = test system: HS 578T breast
# NCI/ADR-RES ovarian = test system: NCI/ADR-RES ovarian
# T-47D breast = test system: T-47D breast
# BT-549 breast = test system: BT-549 breast
smiles,measurement,setting,value
O=c1[nH]cc(F)c(=O)[nH]1,growth,HS 578T breast; runs of 1999,"inactive: 57.4, 15.4, 40.1, 54.6, 18.5, 15% and active: -12, 8.89, -38.2, -53, -16.1, 8.08, 0.852, 3.85, -65.5, -48.5, 2.48%"
same,growth,HS 578T breast; runs of 2000,"active: 1.69%, -29.3% and inactive: 22.1%, 13.5%"
same,growth,NCI/ADR-RES ovarian; runs of 1993,"inactive: 34.9, 25.8, 41.4, 24.4, 21.7, 29.7, 24.9, 30.8 (2×), 22.6, 23.3, 28.5, 35.6 (2×), 43, 38.4, 26.9 (2×), 46.9, 10.6, 25.9, 36 (2×), 36.8 (2×), 32.7, 27.5, 19.2 (2×), 32, 10.4, 22.9, 22.7, 16.8, 39.3, 98.5, 32.9, 42.6, 30.6, 34, 36.9, 40.2% and active: 7.81, 7.84, 2.63, 9.61%"
same,growth,NCI/ADR-RES ovarian; runs of 1994,"inactive: 32.7, 16.4, 30.9 (2×), 27.3, 29.2, 33.8, 13.3, 23.2 (2×), 47.1, 37.8, 38.8, 11.8, 23.8, 27.2, 14.8, 38, 53.8, 16.1, 27.4, 14.1, 41.6, 45.8, 45.6, 18.7, 37.4, 24.8, 21, 22.8, 19.2, 33.2% and active: 6.71%, 0.972%"
same,growth,NCI/ADR-RES ovarian; runs of 1995,"inactive: 40, 20.3, 18.4, 24.8, 32.4, 37.9, 27.3, 28.8, 30, 40.9 (3×), 32.5, 32.1, 33.8, 21.4, 14.8, 27.2, 19, 23.7, 20.4, 24.7, 27.1, 31.2, 23, 18.7, 26.6, 17.2, 21.9, 19.3, 30.6, 23.9, 24.6, 38.2% and active: -36.4, -34.4, -46.3, 9.51%"
same,growth,NCI/ADR-RES ovarian; runs of 1996,"inactive: 37.8, 27.3, 37.4, 37.6, 29.2, 26 (3×), 24.8, 14, 23.7, 28.2, 23, 27.2, 29, 37.2, 28.5, 10.9, 29.9, 34.6, 31.8 (2×), 36.4, 33.2, 13.2, 32.5, 10.4, 21.7, 26.3, 25.2, 18.1, 23.4, 26.5, 24.1, 11.4, 34.8, 42.1, 16.6, 32.9, 19.6, 31.9, 47.9, 36, 25.8, 41.1, 16.9, 34.4, 44% and active: -56.5, -8.17, 0.36, 4.18, 7.16, 4.23, 8.5, 6.02%"
same,growth,NCI/ADR-RES ovarian; runs of 1997,"inactive: 23 (2×), 32.5, 41.8, 32.8, 18.2, 20.2, 32, 51.1, 37.5, 26.3, 13, 25.3, 23.7, 19.4, 18.8, 18.5, 13.2, 31.7, 11.1, 17.2, 36.1, 29.5, 26, 36.6, 36.9, 40.9, 31.9, 24.7 (2×), 30.3, 40.8, 33, 33.6, 36.2% and active: -6.72, 4.7, -5.35, 6.6, 5.81, 7.62, 8.5%"
same,growth,NCI/ADR-RES ovarian; runs of 1998,"inactive: 52.3, 45.7, 17.5, 32.7, 29.6, 36.9, 27.4, 31, 34.2, 26.3, 29.4, 36.7, 25.7, 22.5, 44.2, 24 (2×), 38.9, 33.7, 44.6, 25.4, 28.1, 18, 46% and active: -27.1%, 8.1%"
same,growth,NCI/ADR-RES ovarian; runs of 1999,"inactive: 27, 25.5, 14.6, 25.7, 27.9, 11.8% and active: -2.02, -21.2, -11.2, 1.47, 6.06, -7.64, 1.48, -78, 4.7, 2.43, 7.57%"
same,growth,NCI/ADR-RES ovarian; runs of 2000,"active: 2.91, 4.58, 1.23, 1.44%"
same,growth,T-47D breast; runs of 1993,"inactive: 50.1, 32.1, 43, 32.9, 25.9, 41.4 (2×), 31.1, 37.3, 10.1, 40.4, 30.6, 11.2, 34.3, 22.8, 42.9, 44.9, 15.7, 12.4, 18.8, 47.5, 15.5, 29, 31, 30.1, 26.6, 102, 17.9, 55.6, 14, 14.8, 20.3, 45.2, 22.3, 27.1, 40.1, 16.9% and active: 6.26, 2.2, -2.19, -4.66, 5.47, 7.76, -8.45, 7.56%"
same,growth,T-47D breast; runs of 1994,"inactive: 38.9, 36.9, 34.8 (2×), 22.7, 32.5, 34.6, 26, 22.5, 39.1, 63.5, 27.5, 33.5, 54.4, 20.9, 26.2, 39.8, 15.6, 39, 27.1, 36.8, 36.6, 19.6, 24, 49.9, 16.8, 24.6, 39.2, 19.3, 37.3% and active: 3.78%, 4.95%, -9.13%"
same,growth,T-47D breast; runs of 1995,"inactive: 36, 30, 11.3, 44.6, 25.6, 47.3, 29.9, 19.5, 10.7, 43.6, 35, 11.6, 21.8, 32.9, 21.7, 63.5, 16.9, 25.8, 41.9, 45.3, 37.2, 26.7, 26.8, 34.1, 15.9, 21.4, 24.3, 18.4, 32.7, 15, 40.1, 31.6, 17.2, 21, 20% and active: -2.15, -10.7, 9.29, 9.73, 4.93, 8.4, 8.38, 8.2, -10.3%"
same,growth,T-47D breast; runs of 1996,"active: -0.744, -1.42, 8.02, 8.2, 6, -2.91% and inactive: 19.3, 21.4, 27 (2×), 33.6, 14.9, 29.6, 34.8, 40.8, 27.7, 24, 28.9, 21.2, 26.8, 25, 48.3, 25.1, 42.9, 41.9, 27.2, 40.2, 25.9, 23.7, 25.8 (2×), 27.9, 19.4, 27.4, 21.5, 23.1, 29.7, 35.6, 34.6, 37.8, 27.1, 28.2, 28.1, 49.2, 35.2, 87.8, 22.5%"
same,growth,T-47D breast; runs of 1997,"inactive: 18, 22.7, 42, 35, 16.5, 26.9, 31.8, 14.4, 17.5, 38.6, 45 (2×), 18.4, 29.1, 35.4, 34.5, 29.4, 31.3, 36, 23.1, 21.3, 31.7, 17.6, 10.6, 12.4, 32, 29, 18.5, 23.3, 25.1, 27.1, 16.2, 40.9, 13.8, 26.4, 28.7% and active: -35, 4.69, 2.19, -37.7%"
same,growth,T-47D breast; runs of 1998,"inactive: 15.2, 24.8, 29.3, 44.5, 46.9, 31.7, 26.2, 33.1, 25.9, 35.3, 26.7, 28.9, 35, 15.5, 53.2, 12.6% and active: -1.68, 6.41, 5.51, -16, -7.89, -6.14, -12.6%"
same,growth,T-47D breast; runs of 1999,"inactive: 25.8, 30.3, 20.5, 48.1, 20.6, 39% and active: -4.29, -35.2, -8.62, -25, -75.6, 5.93, -19, 2.59%"
same,growth,T-47D breast; runs of 2000,"active: -41.2%, 0.958%"
same,growth,BT-549 breast; runs of 1993,"inactive: 58.3, 61.3, 51.6, 12.8, 60.8, 35.6, 21, 43.8, 77.2, 53.7, 62.8, 46.8, 23.2, 40.1, 38.6, 51, 24.6, 65.9, 27.4, 93.2, 34.1 (2×), 52, 24.8, 33.6, 96.6, 36, 86.9, 52.1, 30.8, 40, 57.3% and active: 6.32%, -6.58%"
same,growth,BT-549 breast; runs of 1994,"inactive: 60.4, 14.9, 20.7, 47.6, 38.8 (2×), 40.7, 55.8, 49.8, 63.5, 24.7, 19.6, 31.8, 64.7, 25.5, 42.7, 34.8, 35, 68.8, 37.1% and active: 9.77%, 8.17%, -26.4%"

# — PubChem BioAssay (NCI)
